Test results published in PubChem BioAssay AID588342 (National Center for Advancing Translational Sciences (NCATS), 2011).
Among all 360,000 compounds or so, about 25,000 (6.9%) were called active. Inconclusive means that the source gave no clear call. Such entries were picked first, then a sample of the others. Calls follow the shape of the dose curve; as a rule, active = well fitted inhibition curve with a large enough effect; inconclusive = small, poorly fitted or top-dose-only effect; inactive = flat fitted curve, though single readings scatter. Where the call is inconclusive, the potency comes from a doubtful curve fit.

What follows are compounds tested against Luciferin 4-monooxygenase (Photinus pyralis) (UniProt P08659) (assay: qHTS profiling assay for firefly luciferase inhibitor/activator using purifed enzyme and Km concentrations of substrates (counterscreen for miR-21 project)). Conditions: purified FLuc, luminescence inhibition; series mostly up to 57.5 µM.
Sequence of UniProt P08659 (P08659 whole entry, looked up): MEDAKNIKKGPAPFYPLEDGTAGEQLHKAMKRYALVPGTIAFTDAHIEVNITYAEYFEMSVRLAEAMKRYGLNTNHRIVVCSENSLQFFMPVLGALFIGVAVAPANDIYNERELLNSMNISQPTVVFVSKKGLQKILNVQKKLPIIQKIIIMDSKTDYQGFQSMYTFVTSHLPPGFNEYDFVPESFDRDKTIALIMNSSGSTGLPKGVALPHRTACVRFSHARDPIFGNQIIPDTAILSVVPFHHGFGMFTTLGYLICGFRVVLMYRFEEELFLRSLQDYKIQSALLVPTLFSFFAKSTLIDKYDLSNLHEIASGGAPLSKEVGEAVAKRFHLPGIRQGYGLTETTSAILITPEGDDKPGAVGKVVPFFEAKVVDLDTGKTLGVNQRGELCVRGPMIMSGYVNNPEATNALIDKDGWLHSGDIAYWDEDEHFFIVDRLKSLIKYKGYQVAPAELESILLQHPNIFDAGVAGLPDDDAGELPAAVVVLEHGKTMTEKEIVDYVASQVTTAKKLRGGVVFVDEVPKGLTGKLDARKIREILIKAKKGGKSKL
In short: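 Biochemical qHTS of compounds, final roughly 60 µM downward over six points, against 10 nM purified firefly luciferase using Km concentrations of substrates (10 uM D-luciferin, 10 uM ATP) in Tris acetate pH 7.5 buffer; luminescence output.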
Also: nearly all actives have a fitted effect of over 55% in size.
Potency is read from the fitted curve at half-maximal effect; tags tell the direction and shape of the fitted curve.

Row | Compound | Potency
1 | Cc1ccc(F)cc1N=Cc1c(O)c2ccccc2oc1=O | inconclusive: 6.01 µM [inhibitor, full curve]
2 | CCOC(=O)c1c(C)[nH]c(C(=O)NCc2ccco2)c1C | inconclusive: 21.3 µM [inhibitor, partial curve, poor fit]
3 | CC(Sc1nc(O)c(-c2ccccc2)c(=O)[nH]1)C(=O)Nc1ccc(Cl)cc1 (stereo unspecified) | inconclusive: 21.3 µM [inhibitor, partial curve]
4 | O/N=C1/CCc2cccc3cccc1c23 | inconclusive: 26.9 µM [inhibitor, single point]
5 | COc1ccc(NCC(=O)N/N=C/C=C/c2ccccc2[N+](=O)[O-])cc1 | inactive
6 | CCOC(=O)c1c(C)[nH]c(C)c1S(=O)(=O)N(C)CC(=O)N1CCN(c2cccc(Cl)c2)CC1 | inactive
7 | O=C(NC1CCCCCC1)c1cccc(N2CCCC2=O)c1 | active: 15.1 µM
8 | CC/C(=N/OC(=O)c1cccc(C)c1)C(=O)c1cccs1 | inconclusive: 23.9 µM [inhibitor, single point]
9 | CC(=O)NCc1ccc(C(=O)CN2C(=O)NC3(CCCCC3C)C2=O)s1 (stereo unspecified) | inactive
10 | O=C(OCc1nc2ccccc2s1)c1cccc(N2C(=O)CCC2=O)c1 | inconclusive: 21.3 µM [inhibitor, single point]
11 | Cc1ccc(NC(=O)Cn2ncn3c(cc4ccccc43)c2=O)cc1C | inactive
12 | CCc1ccc(C(=O)C(C)OC(=O)c2nc3nc(C)cc(C)n3n2)cc1 (stereo unspecified) | inconclusive: 16.9 µM [inhibitor, partial curve]
13 | Cn1/c(=N/N=C/c2ccc(N3CCOCC3)cc2)sc2ccccc21 | active: 3.01 µM
14 | COc1cc(OC)c(NC(=O)c2c(C)oc3ncnc(N4CCCCC4)c23)cc1Cl | inactive
15 | CCOC(=O)C1(CC2CCCCO2)CCN(C(=O)Nc2ccc3c(c2)OCO3)CC1 (stereo unspecified) | inconclusive: 23.9 µM [inhibitor, partial curve, poor fit]
16 | Cc1ccc(C2CCN(C(=S)NC3CCCCC3)C2)cc1 (stereo unspecified) | inconclusive: 26.9 µM [inhibitor, single point]
17 | CC(C)n1c(NCCc2ccccc2)nc2c1c(=O)n(C)c(=O)n2C | inactive
18 | CCOc1cccc(C(=O)Nc2cccc(NC(=O)c3ccco3)c2)c1 | inconclusive: 23.9 µM [inhibitor, partial curve]
19 | COc1ccc2cc(CN(CC3CCCO3)C(=O)Nc3ccccc3OC)c(=O)[nH]c2c1 (stereo unspecified) | inactive
20 | CCCCc1nn2c(=O)cc(COC(=O)c3cccs3)nc2s1 | inconclusive: 23.9 µM [inhibitor, partial curve]
21 | Cc1cccc(NC(=O)Nc2cccc(C#N)c2)n1 | inconclusive: 4.26 µM [inhibitor, partial curve, poor fit]
22 | Clc1cccc(-n2ncc3c(N4CCCCCC4)ncnc32)c1 | active: 1.69 µM
23 | O=C(O)c1cccc(NC(=S)N/N=C/c2ccccc2OCc2cccc(Br)c2)c1 | inconclusive: 23.9 µM [inhibitor, partial curve]

Row | Compound | Potency
24 | CC(C)CN1C=C2C(=O)C(C)(OC(=O)CCc3ccccc3)C(=O)C=C2C=C1c1ccc(C#N)cc1 (stereo unspecified) | inactive
25 | CCOC(=O)N1CCC(N2CCCC(C(=O)c3ccc4cc(OC)ccc4c3)C2)CC1 (stereo unspecified) | inactive
26 | COc1cccc(NC(=O)Nc2cccs2)c1 | active: 23.9 µM
27 | COc1ccc(CNC(=O)CSCc2ccccc2Cl)cc1 | inconclusive: 37.9 µM [inhibitor, single point]
28 | Cc1c(C(=O)O)sc2nc(SCC(=O)Nc3ccc(S(=O)(=O)NCCCC(=O)O)cc3)[nH]c(=O)c12 | inconclusive: 19 µM [inhibitor, partial curve]
29 | CCOC(=O)c1ccc(N2Cc3ccccc3C2=NC(=O)c2cccs2)cc1 | inconclusive: 37.9 µM [inhibitor, partial curve, poor fit]
30 | COc1ccccc1-c1cc2nc(C)c(CCC(=O)NC3CCCCC3)c(C)n2n1 | inconclusive: 15.1 µM [inhibitor, partial curve]
31 | O=[N+]([O-])c1ccc2nc(-c3cccnc3)[nH]c2c1 | inconclusive: 26.9 µM [inhibitor, partial curve]
32 | COc1ccc(-n2nc(C(=O)NCC(=O)N(C)Cc3ccccc3)c3ccccc3c2=O)c(OC)c1 | inconclusive: 21.3 µM [inhibitor, partial curve]
33 | c1ccc(-n2ncc(-c3nn[nH]n3)n2)cc1 | inconclusive: 21.3 µM [inhibitor, single point]
34 | CCOCCCNC(=O)Cn1nc(CC)n2c(cc3c(OC)cccc32)c1=O | inactive
35 | CCOc1ccc(CN(C(=O)c2cc3ccccc3oc2=O)C2CCS(=O)(=O)C2)cc1 (stereo unspecified) | active: 12 µM
36 | COc1cc(OC)c(C(=O)OCCCOC(=O)c2cc(OC)c(OC)cc2OC)cc1OC | inactive
37 | O=C(CSc1ccccn1)Nc1nonc1[N+](=O)[O-] | inactive
38 | CC(C)OC(=O)NC(c1ccccc1)C(Cl)(Cl)Cl (stereo unspecified) | inactive
39 | CC(C)(C)NC(=O)N1c2ccccc2Sc2ccccc21 | inactive
40 | O=C(c1csc(Nc2cccc3ccccc23)n1)N1CCCC1 | inactive
41 | COc1ccccc1-c1cc(C(=O)N/N=C/c2ccc(C)s2)c2ccccc2n1 | inconclusive: 10.7 µM [inhibitor, partial curve, poor fit]
42 | COc1ccc(Cn2c(SCc3ccc(C(=O)NCc4cccs4)cc3)nc3ccncc32)cc1 | inactive
43 | Cc1cccc(-n2c(N)c(C(=O)N3CCN(C)CC3)sc2=S)c1 | inconclusive: 26.9 µM [inhibitor, partial curve, poor fit]
44 | Nc1cccc(C(=O)N/N=C/c2ccsc2)c1 | inconclusive: 30.1 µM [inhibitor, partial curve, poor fit]
45 | CC(=O)Nc1ccc(S(=O)(=O)Nc2nc3ccccc3nc2Nc2ccc(O)c(C(=O)O)c2)cc1 | inconclusive: 30.1 µM [inhibitor, single point]
46 | CCOC(=O)c1sc2cccc(F)c2c1S(=O)(=O)Nc1ccccc1F | inconclusive: 37.9 µM [inhibitor, partial curve, poor fit]
